Measurements taken from patent publication US20240116985A1, “STAPLED PEPTIDES AND METHODS THEREOF” (priority 2020, published 2024).
At least one peptide structure holds a part that was inferred or is arguable (an end, a ring closure or a residue). At least one structure is not confirmed: it was looked up by name or label, or the drawing left a doubt.

Columns and labels:
[1] = molecular target: T1, beta-catenin/TCF4 engagement (Homo sapiens, UniProt P35222); experiment: Nano-BRET target engagement assay (B-cat-Halo & TCF4-Luc in HEK293 cells); type: cell-based; details: absolute IC50; read-out: NanoBRET Abs IC50
T1 construct: expressed in transfected cells; host or cells: HEK293
T1 sequence (P35222 1-781): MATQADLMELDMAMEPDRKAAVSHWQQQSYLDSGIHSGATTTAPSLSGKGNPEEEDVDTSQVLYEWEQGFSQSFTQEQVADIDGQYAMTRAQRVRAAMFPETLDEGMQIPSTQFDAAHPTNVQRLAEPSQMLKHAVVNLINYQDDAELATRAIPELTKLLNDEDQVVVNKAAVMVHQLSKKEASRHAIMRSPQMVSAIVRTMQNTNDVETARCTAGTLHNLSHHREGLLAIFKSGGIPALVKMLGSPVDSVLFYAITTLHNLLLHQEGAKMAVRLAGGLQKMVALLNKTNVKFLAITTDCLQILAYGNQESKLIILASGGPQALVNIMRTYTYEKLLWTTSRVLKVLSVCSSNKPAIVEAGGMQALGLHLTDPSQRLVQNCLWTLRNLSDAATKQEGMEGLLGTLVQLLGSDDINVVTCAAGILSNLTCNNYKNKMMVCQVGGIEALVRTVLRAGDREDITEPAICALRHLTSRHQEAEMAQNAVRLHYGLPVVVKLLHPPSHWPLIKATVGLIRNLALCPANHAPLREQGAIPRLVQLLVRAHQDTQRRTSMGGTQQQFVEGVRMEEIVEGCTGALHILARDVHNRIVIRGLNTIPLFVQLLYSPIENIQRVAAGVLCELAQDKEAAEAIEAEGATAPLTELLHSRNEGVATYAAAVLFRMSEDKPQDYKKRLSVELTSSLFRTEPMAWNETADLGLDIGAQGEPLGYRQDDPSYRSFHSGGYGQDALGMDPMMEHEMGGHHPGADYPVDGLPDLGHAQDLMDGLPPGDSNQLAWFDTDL

[2] = molecular target: T2, full-length beta-Catenin (Uniprot ID P35222) (Homo sapiens, UniProt P35222); experiment: Fluorescence polarization IC50 (beta-catenin / 5FAM-TCF4 10-53 competition); type: binding; details: fluorescence polarization; read-out: beta-Catenin FP IC50
T2 construct: 10 nM full-length beta-Catenin (Uniprot ID P35222)
T2 sequence (P35222 1-781): T1 sequence (P35222 1-781)

Row | Compound | IC50 [1] | IC50 [2]
1 | CC(=O)N1CCC[C@]12CC=CCCCC1(CCCC=CCCCOC(=O)N3CC[C@@](C(=O)N[C@@H](Cc4ccccc4Br)C(=O)N[C@@H](Cc4csc5ccccc45)C(=O)N[C@@H](CCC(N)=O)C(N)=O)(C3)NC(=O)[C@H](Cc3ccccc3)NC(=O)[C@H](Cc3ccccc3)NC(=O)[C@H](C)NC(=O)[C@H](C)NC(=O)[C@H](CC(=O)O)NC(=O)[C@H](CC(=O)O)NC1=O)NC(=O)[C@H](CC(C)(C)C)NC(=O)[C@H](CC(=O)O)NC2=O (stereo partly drawn) [I-1325, PL3-Asp-Npg-B5-Asp-Asp-Ala-Ala-Phe-Phe-PyrS2-2BrF-BztA-Gln-NH2] | 5700 nM | 14 nM
2 | CC(=O)N1CCC[C@]12CC=CCCCC1(CCCC=CCCCOC(=O)N3CC[C@@](C(=O)N[C@@H](Cc4ccccc4C)C(=O)N[C@@H](Cc4csc5ccccc45)C(=O)N[C@@H](CCC(N)=O)C(N)=O)(C3)NC(=O)[C@H](Cc3ccccc3)NC(=O)[C@H](Cc3ccccc3)NC(=O)[C@H](C)NC(=O)[C@H](C)NC(=O)[C@H](CC(=O)O)NC(=O)[C@H](CC(=O)O)NC1=O)NC(=O)[C@H](CC(C)(C)C)NC(=O)[C@H](CC(=O)O)NC2=O (stereo partly drawn) [I-1326, PL3-Asp-Npg-B5-Asp-Asp-Ala-Ala-Phe-Phe-PyrS2-2MeF-BztA-Gln-NH2] | 6200 nM | 12 nM
3 | COc1ccccc1C[C@H](NC(=O)[C@]12CCN(C1)C(=O)OCCCC=CCCCC1(CCCC=CC[C@]3(CCCN3C(C)=O)C(=O)N[C@@H](CC(=O)O)C(=O)N[C@@H](CC(C)(C)C)C(=O)N1)C(=O)N[C@@H](CC(=O)O)C(=O)N[C@@H](CC(=O)O)C(=O)N[C@@H](C)C(=O)N[C@@H](C)C(=O)N[C@@H](Cc1ccccc1)C(=O)N[C@@H](CC(C)C)C(=O)N2)C(=O)N[C@@H](Cc1csc2ccccc12)C(=O)N[C@@H](CCC(N)=O)C(N)=O (stereo partly drawn) [I-1327, PL3-Asp-Npg-B5-Asp-Asp-Ala-Ala-Phe-Leu-PyrS2-2OMeF-BztA-Gln-NH2] | 7000 nM | 13 nM
4 | COc1ccccc1C[C@H](NC(=O)[C@]12CCN(C1)C(=O)OCCCC=CCCCC1(CCCC=CC[C@]3(CCCN3C(C)=O)C(=O)N[C@@H](CC(=O)O)C(=O)N[C@@H](CC(C)(C)C)C(=O)N1)C(=O)N[C@@H](CC(=O)O)C(=O)N[C@@H](CC(=O)O)C(=O)N[C@@H](C)C(=O)N[C@@H](C)C(=O)N[C@@H](Cc1ccccc1)C(=O)N[C@@H](Cc1ccccc1)C(=O)N2)C(=O)N[C@@H](Cc1csc2ccccc12)C(=O)N[C@@H](CCC(N)=O)C(N)=O (stereo partly drawn) [I-1328, PL3-Asp-Npg-B5-Asp-Asp-Ala-Ala-Phe-Phe-PyrS2-2OMeF-BztA-Gln-NH2] | 5400 nM | 11 nM
5 | CC(=O)N1CCC[C@]12CC=CCCCC1(CCCC=CCCCOC(=O)N3CC[C@@](C(=O)N[C@@H](CC4CCCCC4)C(=O)N[C@@H](Cc4csc5ccccc45)C(=O)N[C@@H](CCC(N)=O)C(N)=O)(C3)NC(=O)[C@H](CC(N)=O)NC(=O)[C@H](Cc3ccccc3)NC(=O)[C@H](C)NC(=O)[C@H](C)NC(=O)[C@H](CC(=O)O)NC(=O)[C@H](CC(=O)O)NC1=O)NC(=O)[C@H](CC(C)(C)C)NC(=O)[C@H](CC(=O)O)NC2=O (stereo partly drawn) [I-1329, PL3-Asp-Npg-B5-Asp-Asp-Ala-Ala-Phe-Asn-PyrS2-Cha-BztA-Gln-NH2] | 35000 nM | 23 nM
6 | CC(=O)N1CCC[C@]12CC=CCCCC1(CCCC=CCCCOC(=O)N3CC[C@@](C(=O)N[C@@H](Cc4ccccc4Cl)C(=O)N[C@@H](Cc4csc5ccccc45)C(=O)N[C@@H](CO)C(N)=O)(C3)NC(=O)[C@H](Cc3ccccc3)NC(=O)[C@H](Cc3ccccc3)NC(=O)[C@H](C)NC(=O)[C@H](C)NC(=O)[C@H](Cc3cccc(C(=O)O)c3)NC(=O)[C@H](CC(=O)O)NC1=O)NC(=O)[C@H](CC(C)(C)C)NC(=O)[C@H](CC(=O)O)NC2=O (stereo partly drawn) [I-1339, PL3-Asp-Npg-B5-Asp-3COOHF-Ala-Ala-Phe-Phe-PyrS2-2C1F-BztA-Ser-NH2] | 5200 nM | 33 nM
7 | CC(=O)N1CCC[C@]12CC=CCCCC1(CCCC=CCCCOC(=O)N3CC[C@@](C(=O)N[C@@H](Cc4ccccc4Cl)C(=O)N[C@@H](Cc4csc5ccccc45)C(=O)N[C@H](CO)[C@@H](C)O)(C3)NC(=O)[C@H](Cc3ccccc3)NC(=O)[C@H](Cc3ccccc3)NC(=O)[C@H](C)NC(=O)[C@H](C)NC(=O)[C@H](Cc3cccc(C(=O)O)c3)NC(=O)[C@H](CC(=O)O)NC1=O)NC(=O)[C@H](CC(C)(C)C)NC(=O)[C@H](CC(=O)O)NC2=O (stereo partly drawn) [I-1340, PL3-Asp-Npg-B5-Asp-3COOHF-Ala-Ala-Phe-Phe-PyrS2-2C1F-BztA-Thro1] | 6800 nM | 159 nM
8 | CC(=O)N1CCC[C@]12CC=CCCCC1(CCCC=CCCCOC(=O)N3CC[C@@](C(=O)N[C@@H](Cc4ccccc4C(F)(F)F)C(=O)N[C@@H](Cc4csc5ccccc45)C(=O)N[C@@H](CO)C(N)=O)(C3)NC(=O)[C@H](Cc3ccccc3)NC(=O)[C@H](Cc3ccccc3)NC(=O)[C@H](C)NC(=O)[C@H](C)NC(=O)[C@H](Cc3cccc(C(=O)O)c3)NC(=O)[C@H](CC(=O)O)NC1=O)NC(=O)[C@H](CC(C)(C)C)NC(=O)[C@H](CC(=O)O)NC2=O (stereo partly drawn) [I-1342, PL3-Asp-Npg-B5-Asp-3COOHF-Ala-Ala-Phe-Phe-PyrS2-2F3MeF-BztA-Ser-NH2] | 7000 nM | 35 nM
9 | CC(=O)N1CCC[C@]12CC=CCCCC1(CCCC=CCCCOC(=O)N3CC[C@@](C(=O)N[C@@H](Cc4cccs4)C(=O)N[C@@H](Cc4csc5ccccc45)C(=O)N[C@@H](CCC(N)=O)C(N)=O)(C3)NC(=O)[C@H](CC(C)C)NC(=O)[C@H](Cc3ccccc3)NC(=O)[C@H](C)NC(=O)[C@H](C)NC(=O)[C@H](CC(=O)O)NC(=O)[C@H](CC(=O)O)NC1=O)NC(=O)[C@H](CC(C)(C)C)NC(=O)[C@H](CC(=O)O)NC2=O (stereo partly drawn) [I-1344, PL3-Asp-Npg-B5-Asp-Asp-Ala-Ala-Phe-Leu-PyrS2-2Thi-BztA-Gln-NH2] | 4100 nM | 11 nM
10 | CC(=O)N1CCC[C@]12CC=CCCCC1(CCCC=CCCCOC(=O)N3CC[C@@](C(=O)N[C@@H](Cc4cccs4)C(=O)N[C@@H](Cc4csc5ccccc45)C(=O)N[C@@H](CCC(N)=O)C(N)=O)(C3)NC(=O)[C@H](Cc3ccccc3)NC(=O)[C@H](Cc3ccccc3)NC(=O)[C@H](C)NC(=O)[C@H](C)NC(=O)[C@H](CC(=O)O)NC(=O)[C@H](CC(=O)O)NC1=O)NC(=O)[C@H](CC(C)(C)C)NC(=O)[C@H](CC(=O)O)NC2=O (stereo partly drawn) [I-1345, PL3-Asp-Npg-B5-Asp-Asp-Ala-Ala-Phe-Phe-PyrS2-2Thi-BztA-Gln-NH2] | 4700 nM | 15 nM
11 | CC(=O)N1CCC[C@]12CC=CCCCC1(CCCC=CCCCOC(=O)N3CC[C@@](C(=O)N[C@@H](CC4CCCC4)C(=O)N[C@@H](Cc4csc5ccccc45)C(=O)N[C@@H](CCC(N)=O)C(N)=O)(C3)NC(=O)[C@H](CC(C)C)NC(=O)[C@H](Cc3ccccc3)NC(=O)[C@H](C)NC(=O)[C@H](C)NC(=O)[C@H](CC(=O)O)NC(=O)[C@H](CC(=O)O)NC1=O)NC(=O)[C@H](CC(C)(C)C)NC(=O)[C@H](CC(=O)O)NC2=O (stereo partly drawn) [I-1353, PL3-Asp-Npg-B5-Asp-Asp-Ala-Ala-Phe-Leu-PyrS2-CypA-BztA-Gln-NH2] | 8800 nM | 18 nM
12 | C[C@@H]1NC(=O)[C@H](C)NC(=O)[C@H](CC(=O)O)NC(=O)[C@H](CC(=O)O)NC(=O)C2(CCCC=CCCCOC(=O)N3CC[C@@](C(=O)N[C@@H](Cc4ccccc4)C(=O)N[C@@H](Cc4csc5ccccc45)C(=O)N[C@@H](CO)C(N)=O)(C3)NC(=O)[C@H](CO)NC(=O)[C@H](Cc3ccccc3)NC1=O)CCCC=CC[C@]1(CCCN1C(=O)c1ccccn1)C(=O)N[C@@H](CC(=O)O)C(=O)N[C@@H](CC(C)(C)C)C(=O)N2 (stereo partly drawn) [I-1356, PL3-Asp-Npg-B5-Asp-Asp-Ala-Ala-Phe-Ser-PyrS2-Phe-BztA-Ser-NH2] | > 20000 nM | 23 nM
13 | COCCC(=O)N1CCC[C@]12CC=CCCCC1(CCCC=CCCCOC(=O)N3CC[C@@](C(=O)N[C@@H](Cc4ccccc4)C(=O)N[C@@H](Cc4csc5ccccc45)C(=O)N[C@@H](CO)C(N)=O)(C3)NC(=O)[C@H](CO)NC(=O)[C@H](Cc3ccccc3)NC(=O)[C@H](C)NC(=O)[C@H](C)NC(=O)[C@H](CC(=O)O)NC(=O)[C@H](CC(=O)O)NC1=O)NC(=O)[C@H](CC(C)(C)C)NC(=O)[C@H](CC(=O)O)NC2=O (stereo partly drawn) [I-1357, PL3-Asp-Npg-B5-Asp-Asp-Ala-Ala-Phe-Ser-PyrS2-Phe-BztA-Ser-NH2] | 33600 nM | 10 nM
14 | CC(C)C[C@@H]1NC(=O)[C@H](Cc2ccccc2)NC(=O)[C@H](C)NC(=O)[C@H](C)NC(=O)[C@H](CC(=O)O)NC(=O)[C@H](CC(=O)O)NC(=O)C2(CCCC=CCCCOC(=O)N3CC[C@@](C(=O)N[C@@H](Cc4ccccc4)C(=O)N[C@@H](Cc4csc5ccccc45)C(=O)N[C@@H](CCC(N)=O)C(N)=O)(C3)NC1=O)CCCC=CC[C@]1(CCCN1C(=O)c1ccccn1)C(=O)N[C@@H](CC(=O)O)C(=O)N[C@@H](CC(C)(C)C)C(=O)N2 (stereo partly drawn) [I-1361, PL3-Asp-Npg-B5-Asp-Asp-Ala-Ala-Phe-Leu-PyrS2-Phe-BztA-Gln-NH2] | > 20000 nM | 39 nM
